± gives the standard deviation. In all, about 6,600 sequences were measured (“pre-steady-state target cleavage rate”: median about 0.07, highest 2% from about 0.72 on). Only a part is listed here, and it is no random draw.
Test system: MIWI (PIWIL1) piRISC loaded with Kctd7 piRNA (30 nt)
Assay: pre-steady-state target cleavage rate (min^-1); MIWI and MILI are mouse PIWI proteins and EfPiwi is from a freshwater sponge; tags in brackets are library labels; higher = faster piRNA-guided slicing of the target
Details: guide: Kctd7 piRNA 5'p-UGUUAAUCUCUCAGAGAAGGUGACAGUGAU; auxiliary factor: 500 nM mouse GTSF1
Description: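 Cleave-'n-Seq: a library of target RNAs (target site embedded in constant flanks, ACAGCATTCCGCGTTAGTGATATCCG... 5' flank; DNA-blocked outside the site) at 0.1 nM was incubated with 1 nM active mouse MILI or MIWI piRISC (synthetic 5'-monophosphorylated piRNA guide) with or without 500 nM mouse GTSF1 at 33 °C for 1 min to 16 h. Uncleaved targets were sequenced and normalised to non-target controls, and the pooled three trials were fitted to a burst-and-steady-state model to give the pre-steady-state cleavage rate (min^-1; k3 is constrained to at most 1e-4). Sequence is the target site only; target names encode pairing extent (gX:gY) and contiguous / 1-mismatch / 2-mismatch / bulge geometry. Fits with R² ≤ 0 are excluded.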

Sequence	pre-steady-state target cleavage rate
UACUGUGUCACCUUCUCUGAGAGAUUAAGA	0.223 ± 0.027
UAGUGACACACCUUCUCUGAGACUAUAUGA	< 0.0001
UAGUGACACUCCUUCUCUGACAGAUUAACA	0.0907 ± 0.011
UACACUCUCACCUUCUCUGACAGAUUAACA	0.333 ± 0.028
UAGUGACUCACCUACUCUGAGAGAUAAACA	0.0896 ± 0.015
UAGUGACAGACCUUCUCUGAGAGAUUAACCA	0.186 ± 0.021
UAGUCUGUCACCUUGUCUGAGAGAAUAACA	0.0521 ± 0.019
UAGUGACAGACCUUGUCUGAGAGAUUAACA	0.0271 ± 0.0055
UAGUGUGUCUCCUUCUCUGAGAGAUUAUGA	0.0256 ± 0.0085
UAGUGACAGUGCUUCUCUGCGAGAUUAACA	0.00577 ± 0.0016
UUCACUGUCACCUAUCUCUGAGAGAUUAACA	0.595 ± 0.028
UUCACUGUCACCAUCUCUGAGAGAUUAUCA	0.313 ± 0.042
UAGUGACUCACCUUCUCUGUGAGAAUAACA	0.0194 ± 0.0051
UAGUCUGUGACCUUCUCUGUGAGAUUAACA	0.189 ± 0.015
AUCACUGUCACCUUCUCUGAGUCAUUAACA	0.0117 ± 0.0032
UAGUGUGUCACCUUCUCUGAGAGUUUAAGA	0.161 ± 0.04
UAGUGAGUCACGUUCUGUGAGAGAUUAACA	0.427 ± 0.025
UAGUGACUCACCUUCUCUGAGAGAAUAUCA	0.0374 ± 0.0092
UAGACUGUCACCUUCGCUGAGAGAUUAACA	0.425 ± 0.047
UUCACUGUCACCUUCUCAGAGAGAUUUUGA	0.223 ± 0.06
AUCACAGUCACCUUCUCUGAGAGAUUAUCA	0.29 ± 0.035
UAGUGACAGUGGAAGACUGCGAGAUUAACA	< 0.0001
UUCAUGUCACCUUCUCUGAGAGAUUAACA	0.311 ± 0.032
UAGUGACACUACCUUCUCUGAGAGAUUAACA	0.324 ± 0.025
UAGUGACUCACCUACUCUGAGUGAUUAACA	0.00715 ± 0.0029

Sequence	pre-steady-state target cleavage rate
UAGUGAGUCACCUUCUCUGAGAGUUUAACA	0.392 ± 0.067
UAGUGACACACCUACUCUGAGAGAUUAACA	0.251 ± 0.026
UUGACUGUCACCUUCUCUGAGAGAUUAAGA	0.257 ± 0.034
UAGUGUGUCACCUUCUCUGAGAGUUUAUGA	0.103 ± 0.033
UAGACUGACACCUUCUCUGAGAGAUUUUGA	0.0218 ± 0.0063
UAGUGACACACCUUCUGUGAGUGAUUAACA	0.0191 ± 0.0043
UUCACUGUCACCUUCUCUCUGAGAUUAAGA	0.013 ± 0.0054
UAGUGACAGUGCUUCUCUGAGAGCAUUAACA	0.00327 ± 0.003
UAGACUGUCACCUUCUCUGAGAGAUUGAACA	0.446 ± 0.055
UACACUGUCUGCUUCUCUGAGAGAUUUUGA	0.00732 ± 0.0032
UAGUGACUCUCCUUCUCUGAGAGAUUAAGA	0.0258 ± 0.0053
AUCACUGUCACCUUCUCUGAGAGAUUUUGA	0.0948 ± 0.023
AACACUGUCACCUUCUGUGAGAGAUUAACA	0.623 ± 0.029
UUGUCUGUCACCUUCUCUGAGAGAUUAUGA	0.0511 ± 0.015
UAGAGUGUCACCUUCUCUGAGAGAUUUACA	0.411 ± 0.049
UAGUGUCUCACCUUCUCUGAGAGAUUAAGA	0.091 ± 0.02
UACACUGUCACGAUCUCUGAGAGAUUAUGA	0.0201 ± 0.008
AUCACUGUCACCAUCUCAGAGAGAUUAACA	0.15 ± 0.02
UAGUGACUCACCUUAUCUGAGAGAUUAACA	0.308 ± 0.034
UAGUGACAGUGCUUCUCUGAAAGAUUAACA	0.00956 ± 0.0019
UACUCUGUCACCUUCUCUGAGAGAUUAUGA	0.122 ± 0.025
UAGUCUGUCACCUUGUCUGAGAGAUUAACA	0.265 ± 0.025
UAGUGUGUCACCUUGUCUGAGAGAUAAACA	0.063 ± 0.012
UAGAGUGUCACCUUCUCUCAGAGAUUAACA	0.137 ± 0.014
UAGUCUGUCACCUUCUCUGAGAGUUAAACA	0.4 ± 0.074

Sequence	pre-steady-state target cleavage rate
UAGUGAGUCACCUCUCUCUGAGAGAUUAACA	0.377 ± 0.034
UAGACUGUCACCUUCUCUGUGUGAUUAACA	0.00878 ± 0.0027
UUCACUGUCACCUUCUCUGAGACAUUAACA	0.141 ± 0.012
UAGUGAGUCACCUUCUCGAGAGAUUAACA	0.074 ± 0.0093
UAGUCUCACACCUUCUCUGAGAGAUUAACA	0.464 ± 0.022
UAGACUCUCACCUACUCUGAGAGAUUAACA	0.277 ± 0.022
UAGUGUGUCACCUUCACUGAGAGAUUAUCA	0.131 ± 0.026
UUCACUGUCACCUUCUCUGAGUCUUUAACA	0.0111 ± 0.0038
UUGACUGUCACCUUCUCUGUGAGAUUAACA	0.267 ± 0.011
AUCACUGUCAGCUUCUCUGAGUGAUUAACA	0.0205 ± 0.004
UUCACUGUCACCUUCUCUGAGAGUUAACA	0.368 ± 0.094
UAGUGAGUGUGCUUCUCUGAGAGAUUAACA	0.0679 ± 0.0088
UAGACUCACACCUUCUCUGAGAGAUUAAGA	0.152 ± 0.023
UAGUGACACACCUUCUGUGAGAGAUAUUGA	0.0056 ± 0.0042
UAGUGUGUCACCAUCUCUGAGAGAUUAUGA	0.02 ± 0.007
UAGUGACACACCUUCUCUCAGAGAUUAUCA	0.051 ± 0.016
UUCACUGUCACGUUCUCUCAGAGAUUAACA	0.0729 ± 0.0078
UUCCCUGUCACCUUCUCUGAGAGAUUAACA	0.502 ± 0.037
UAGUGACACACCUUCUCUAGAGAUUAACA	0.0218 ± 0.0072
UAGUGAGUGACCUUCUCUGAGAGAUAAACA	0.294 ± 0.04
UAGUGACUCACCUUCACAGAGAGAUUAACA	0.00937 ± 0.0028
UAGACUGUCACCUUCUCUGAGACGAUUAACA	0.0162 ± 0.0031
UAGACAGUCACCUUCUCUGAGAGAUUUACA	0.36 ± 0.046
UAGUGACACACCUUUCUGAGAGAUUAACA	0.0293 ± 0.0078
UUCACUGUCACCUUCCUCUGAGAGAUUAACA	0.538 ± 0.029

Sequence	pre-steady-state target cleavage rate
AUCACUGUGACCUUCUCUCAGAGAUUAACA	0.11 ± 0.01
UACACUGUCUGCUUCUCUGAGAGAUUAAGA	0.0888 ± 0.015
AACACUGUCACCUUCUCUGAGAGAUUUUGA	0.0856 ± 0.021
UAGAGAGUCACCUUCUCUGAGAGAUUAAGA	0.244 ± 0.047
UAGUGUGUCACCUUCUCUGUGAGUUUAACA	0.108 ± 0.015
UUCACUGACACCUACUCUGAGAGAUUAACA	0.459 ± 0.043
UAGUGAGUCACCUUCACUGACAGAUUAACA	0.188 ± 0.02
UAGUGACUCACGCUUCUCUGAGAGAUUAACA	0.178 ± 0.02
UAGUGACUCACCUUCUGUGAGAGAAUAACA	0.0473 ± 0.0072
UAGUGAGUCACGAUCUCUGAGAGAUUAACA	0.457 ± 0.037
UAGUCUGUCACCUUCUCUGAGAGAUUUUGA	0.0211 ± 0.0064
UUCACUGUCACCUUCUCUCUGAGAUUUUGA	0.00836 ± 0.0045
UUCACUGUCACCAAGUCUGAGAGAUUUUGA	0.0232 ± 0.01
UAGUGACUCACCUUCUCUGAGAGAUUAUCA	0.323 ± 0.057
UAGACUGACACCUUCUCUCAGAGAUUAACA	0.076 ± 0.0059
UAGUGAGUCACCUUCUCUGAAAGAUUAACA	0.572 ± 0.043
AUCACUGUCACCUUCUGUGAGAGAUUAAGA	0.0544 ± 0.015
UAGACUGUCUGCUUCUCUGAGAGAUUAACA	0.559 ± 0.038
UAGUCUGUCACCUUCUCUGUGAGAUAAACA	0.114 ± 0.012
UAGACUGUCACCUUGUCUGAGAGAUUUACA	0.659 ± 0.12
UACACUGUGUCCUUCUCUGAGAGAUUAUGA	0.0345 ± 0.0098
UAGUCUGACACCUUCACUGAGAGAUUAACA	0.385 ± 0.02
AUCUGAGUCACCUUCUCUGAGAGAUUAAGA	0.0948 ± 0.019
UUCACUGACACCUUCUCUGAGAGAUAUUGA	0.095 ± 0.024
AUCACUGUCACCUUCUCUGAUAGAUUAACA	0.657 ± 0.033

Sequence	pre-steady-state target cleavage rate
UACACUGUCACCAACUCUGAGAGAUUAUGA	0.00388 ± 0.0037
AUCACUGUCACCUGCUCUGAGAGAUUAACA	0.673 ± 0.026
UACACUCUCACCUUCUCUGAGAGAUUUACA	0.232 ± 0.038
UAGUGACUCACCUUGUCUGAGAGAUUAUGA	0.00687 ± 0.0034
UAGUGUGUGACCUUCACUGAGAGAUUAACA	0.282 ± 0.024
AUCGACUGUCACCUUCUCUGAGAGAUUAACA	0.821 ± 0.059
UAGAGUGUCACGUUCUCUGAGAGAUUAACA	0.668 ± 0.03
UAGUGUGUCACCUUCUCUGUGAGAUUAUCA	0.0599 ± 0.012
UAGUGACAGAGCUUCUCUGAGAGAAUAACA	0.00364 ± 0.0026
AUCACUGACACCUUCUCUGAGUGAUUAACA	0.0357 ± 0.0069
AUCACUGUCACCUUGUCUGAGAGAUUAAGA	0.61 ± 0.12
UAGUCUGUCACGUUCUCUGAGAGAUUUACA	0.187 ± 0.026
UUCACUGUCACCUUCACUGAGAGAUUUUGA	0.518 ± 0.13
UUCACUGUCAGCUUCUCAGAGAGAUUAACA	0.25 ± 0.015
UAGUGACACACCUUCUCUGAGAGUUUUUGA	0.00705 ± 0.0044
UUCUCUGUCACCUUCUCAGAGAGAUUAACA	0.135 ± 0.017
UACACUGUCACCUUCUCUGAGACAUUUUGA	0.00497 ± 0.0047
UACACACACACCUUCUCUGAGAGAUAUUGA	0.0739 ± 0.026
UACACUGUCACCUAGUCUGAGAGAUUAACA	0.499 ± 0.033
UAGACUGUCACCUAGACUGAGAGAUUAACA	0.0166 ± 0.0036
UAGUGACAGUCCUUCUCUGUGAGAUUAAGA	0.00358 ± 0.0027
UACACUGUCACCUAGUCUGAGAGAUUUUGA	0.0238 ± 0.01
UACACUCAGACCUUCUCUGAGAGAUUAUGA	0.0073 ± 0.0047
UAGUGUGUCACCUUCUCCGAGAGAUUAACA	0.546 ± 0.11
AUCACUGUCACCUUCUCUGAGAGAAAAUGA	0.0648 ± 0.022

Sequence	pre-steady-state target cleavage rate
UAGUGACAGUGCUUCUCUGAGAGAUUAAUA	0.0189 ± 0.004
UACAGUGACACCUUCUCUGAGAGAUUAACA	0.553 ± 0.025
UUCACUGUCACCUUCACUGAGAGAUUAUGA	0.146 ± 0.034
UAGACUGUCACCUUCUGUGAGACAUUAACA	0.221 ± 0.018
UAGUGAGUCUCCUUCUCUCAGAGAUUAACA	0.0603 ± 0.0063
UAGUGACUCACCUUCUCUGAGAGACUUAACA	0.175 ± 0.028
UAGUGACACACCUUCUAUGAGAGAUUAACA	0.0665 ± 0.011
UUCACUGUCUCCUUCUCUGAGAGUUUAACA	0.42 ± 0.061
UUCACUGUCUGCUUCUCUGAGAGAUUAUGA	0.0359 ± 0.0076
UAGACUGUCACCUUCUCUGAGAGAAAAACA	0.103 ± 0.019
UAGUCUGACACCAUCUCUGAGAGAUUAACA	0.411 ± 0.029
UACACUGUCACCAUCUCAGAGAGAUUAACA	0.119 ± 0.015
AUCACUGUCACCUUCUCUGAGACAUUAACA	0.149 ± 0.019
UAGUCUGUCACCUUCCUGAGAGAUUAACA	0.0876 ± 0.021
UAGUGACAGUGGAAGAGAGAGAGUAAAACA	< 0.0001
UUCACUGUCACCUUCUCUGAGAGAUAUACA	0.218 ± 0.028
UUCACUGUGACCUUGUCUGAGAGAUUAACA	0.133 ± 0.021
AUCACUGUCACCUUCUCUGACUCAUUAACA	0.00534 ± 0.0029
UAGUGACAGACGUUCACUGAGAGAUUAACA	0.00384 ± 0.0037
UAGUGACAGUCCUUCUCUGUGAGAUAAACA	0.00652 ± 0.0025
